Hit rate of the full screen: of about 200,000 compounds, about 560 (0.28%) were called active. Inconclusive means that the source gave no clear call. Such entries were picked first, then a sample of the others. Calls come from the whole dose curve; as a rule, active = well fitted inhibition curve with a large enough effect; inconclusive = small, poorly fitted or top-dose-only effect; inactive = flat fitted curve, though single readings scatter. No potency is given beside an inconclusive call; the fits are too rough.
What follows are molecules tested against Luciferin 4-monooxygenase (Photuris pensylvanica) (UniProt Q27757) (assay: Counterscreen for Luciferase (Kinase-Glo TM) Inhibition). Conditions: ATP luminescence, 8 min; series mostly up to 38.3 µM.
Description: NCGC Assay Overview: NIH Molecular Libraries Screening Centers Network [MLSCN] NIH Chemical Genomics Center [NCGC] MLSCN Grant: None Luciferase (Kinase-Glo, Promega Corporation) was assayed for its ability to generate light using ATP and luciferin as substrates. The ATP concentration in the assay (10 uM) was within the linear range of enzyme activity for the assay conditions used.
NCGC Assay Protocol Summary: Four uL of substrate mix (final concentration, 50 mM imidazole pH 7.2, 50 mM KCl, 7 mM MgCl2, 10 uM ATP, 0.01% Tween 20, 0.05% BSA) was dispensed into white 1536 well plates. Twenty-three nL of compound was delivered by a pin tool and 2 uL of luciferase detection mix (Kinase-Glo, Promega)) was added. Following 8-minute incubation at ambient temperature, luminescence was measured by a ViewLux (Perkin Elmer) at 5 seconds exposure/plate.
Note: nearly all actives have a fitted effect of over 60% in size.
Potency is the fitted concentration of half-maximal effect; tags give direction and shape of the fitted curve.

Structure (SMILES) | Potency
Cc1cc([N+](=O)[O-])nn1CC(=O)NNC(=S)Nc1ccc(F)cc1 | inactive
O=C(Nc1ccc(N2CCCC2)cc1)c1cccc(F)c1 | inconclusive [inhibitor, partial curve]
O=C(NC1=NCCS1)C1COc2ccccc2O1 (centres undefined) | active: 7.94 µM
S=C(N=Nc1ccccc1)NNc1ccccc1 | inactive
COCCn1c(C)cc(C(=O)CSc2nnc(C)s2)c1C | active: 10 µM
Cc1ccc2c(c1)sc(=NC(=O)c1cccs1)n2C | inconclusive [inhibitor, single point]
c1ccc2oc(C3=NNC(=NC4CC4)SC3)cc2c1 | inconclusive [inhibitor, partial curve]
O=c1oc(-c2ccccc2)nc2sc3c(c12)CCC3 | inconclusive [inhibitor, single point]
CCN(C(=O)COC(=O)c1cccnc1Nc1cccc(C(F)(F)F)c1)C1CCS(=O)(=O)C1 (centres undefined) | inconclusive [inhibitor, partial curve]
Fc1cccc(/C=N/Nc2ncnc3nc[nH]c23)c1 | inconclusive [inhibitor, partial curve]
COc1ccc(/C=C/C(=O)c2c(O)cc(C)oc2=O)c(OC)c1 | inconclusive [inhibitor, partial curve]
O=S(=O)(O)c1cc(S(=O)(=O)O)c2c(N=Nc3cccc4ccccc34)c(O)ccc2c1 | inconclusive [inhibitor, single point]
Cc1onc(-c2ccccc2Cl)c1C(=O)NCc1ccccn1 | inactive
CC(=O)Cc1nsc(NC(=O)c2ccc(-c3cccc(C(F)(F)F)c3)o2)n1 | inactive
CCOC(=O)N1CCN(C(=S)NC2CCCC2)CC1 | inactive
Cc1c(Cc2ccccc2)sc(/N=C/c2c(O)ccc3ccccc23)c1C(N)=O | inactive
CN1CCN(NC(=O)c2cn(-c3ccccc3)nc2-c2ccc(OC(F)F)cc2)CC1 | inactive
CC1CCN(Cc2nnnn2-c2cccc([N+](=O)[O-])c2)CC1 | inactive
CN(C)c1ccnc(Oc2ccc(C(C)(C)C)cc2)c1C#N | inactive
O=S1(=O)NC(=NCCOCCO)c2ccccc21 | inactive
Cc1cccc(C(=O)n2c(=S)nc3ccccn32)c1 | active: 14.1 µM
COc1ccc(O)c(/C=N/Nc2nc3ccccc3[nH]2)c1 | inactive
Nc1nc(Nc2ccccc2)nc2ccccc12 | active: 11.2 µM
Cc1cc(=O)cc2oc3cc(N)c(-c4c(C)cc(O)cc4O)c(C)c3nc1-2 | inconclusive [inhibitor, partial curve]
